Laboratory results published in PMC5515408.
Some of the results follow. At the low end of the ranking the order means little.

The sequences below were run on MYC (p64) + MAX (p21), in MYC:MAX (assay: protein-binding microarray (anti-MAX antibody)). Details: PBM: 15 mM Tris-HCl pH 7.5, 100 mM KCl, 0.075% NP40, 7.5 mM beta-mercaptoethanol, 375 ng/ul BSA, 8 ng/ul poly(dA-dT):(dA-dT), 550 ng complex, 60 min, room …; high values mean tight binding; double strand, one strand shown; sequences stand for … in CCGGC…TTAATAGCTAAGATTACTATATCGACG.

Sequence | binding signal (log2 normalized fluorescence)
TGAATCTATGTA | -0.0794
TGAACAATGGTA | 0.0607
TGATACGTGGTC | 0.408
TGATCCCGTGTA | 0.193
TGAGCTCGTGTA | 0.336
TGACACGTCGAA | 0.472
TGATCCTGTGTA | 0.0933
TGAATCACTGTA | 0.032
TGACACGGGCTA | 0.316
TGATAATACGTA | 0.217
TGAAATGCAGTA | 0.128
TGACACGTGGGA | 0.669
TGAGACAACGTA | 0.0501
TGAGCATAAGTA | 0.257
ACTTAGGGGGGT | 0.686
TGAAATATGGTA | 0.0849
TGATATACAGTA | -0.169
TGAATCGTGGTA | 0.403
TGACCATCGGTA | 0.229
TGAAGAATAGTA | -0.307
TGATGGAGCGTA | 0.118
TGAGGGATCGTA | 0.0857
TGAGCGGTTGTA | 0.0749
TGATTCGGAGTA | -0.225
TGAATCATAGTA | -0.0174

Sequence | binding signal (log2 normalized fluorescence)
TGAGGGCGTGTA | 0.27
TGATCAACCGTA | -0.0564
TGATGGGTCGTA | 0.0905
TTAAACGTGTTA | 0.426
TGAACTAGCGTA | 0.0237
TGACCGTCAGTA | 0.104
TGACGTGCGGTA | 0.451
TGACGACATGTA | 0.297
TGACCGTCTGTA | 0.169
TGATCTGTTGTA | -0.0552
TGAAGTAAAGTA | 0.000186
GAACACGTGGTA | 0.76
TGAGTAATCGTA | -0.0224
TGAAGCGCGGTA | 0.476
TGATCCCAGGTA | 0.0304
TGACTCTCAGTA | -0.0565
TGACACGTTTTA | 0.512
TGAAAGTAAGTA | -0.144
TGACATATTGTA | 0.296
TGAGGGCAGGTA | 0.0191
TGAAAGTTAGTA | -0.0592
TGACAACATGTA | 0.421
TGAGTCGGTGTA | 0.0257
TGAGCTCGGGTA | -0.139
TGAGGGTCAGTA | 0.0413

Sequence | binding signal (log2 normalized fluorescence)
TGAACCATTGTA | 0.175
TGAAATATTGTA | -0.0137
TGAGGTGGGGTA | 0.453
TGAACAATTGTA | 0.0107
TGAGGTCTAGTA | 0.0313
TGAAAATATGTA | 0.0359
TGAACCTATGTA | 0.08
TGAAGGTGAGTA | -0.00294
TGAACAGTAGTA | -0.0391
TGAAGCTCTGTA | -0.0739
TGAAATCGGGTA | -0.159
TGACCCGTGGCT | 0.285
TGAGCGGCTGTA | -0.0187
TGATTGGGAGTA | -0.194
TGACGCCGGGTA | 0.0934
TGAGGAGCTGTA | -0.188
TGAGGAAGAGTA | -0.245
TGAGGTCGTGTA | 0.121
TGGTGCGTGGTA | 0.373
TGAAATCTTGTA | -0.14
TGAGCCTCTGTA | -0.03
TGAAGCATAGTA | 0.127
TGACACGTGGTA | 0.825
TGAACAACTGTA | 0.132
TGATCCCGAGTA | 0.0832

Sequence | binding signal (log2 normalized fluorescence)
TGAGGTGTGGTA | 0.294
TGACCGCAGGTA | 0.143
TGATTAAATGTA | -0.0844
TGAGGCGGAGTA | -0.0527
TGAGTCGCAGTA | 0.00125
TGACACAGAGTA | 0.0114
TGATGGAGAGTA | 0.0359
TGAGCTGCTGTA | -0.0108
TGACCCAGGGTA | -0.0899
TGCCACGTGGTA | 0.82
TGAGGGGCCGTA | 0.0961
TGACTGGTGGTA | 0.126
TAGGACGTGGTA | 0.294
TGACACGCAATA | 0.407
TGAAGAGAGGTA | 0.031
AAACACGATGTT | 0.827
TGATTGCCCGTA | 0.0198
TGAATGGTAGTA | 0.179
TGACTTTCCGTA | 0.0346
TGAATCCTGGTA | -0.0163
TGAAGCAGAGTA | -0.0166
TGACACGGTTTA | 0.34
TGAAGACCTGTA | 0.0334
TGAATGGGGGTA | 0.667
AGACACGATGTA | 0.758

Sequence | binding signal (log2 normalized fluorescence)
TGAACTCGTGTA | 0.606
TTACACGTGTTA | 1.05
TGACCCCGGGTA | 0.00322
TGAAGATACGTA | -0.0327
TGGCACGCGGTA | 0.538
TGAGCACGGGTA | 0.289
TGAGATAGTGTA | -0.0988
TTGGACGTGGTA | 0.287
TGACTGAATGTA | 0.141
GCAAACGTGGTA | 0.579
TGAAGCGGAGTA | -0.165
TGACGAGGTGTA | 0.293
TGATGCCGTGTA | 0.205
TGAGCAAGCGTA | 0.119
TGATCTTTAGTA | -0.0298
TGACACGTCAAA | 0.598
TGAAAGTGTGTA | 0.0834
TGATTATGCGTA | 0.0442
TAACACGTGGTT | 1.01
TGACTTTAGGTA | -0.173
TGAGTGGGCGTA | 0.162
TGAAACATCGTA | 0.226
TGACGCCAAGTA | 0.114
TGAATTTAGGTA | -0.246
TGACCCGACGTA | 0.117

Sequence | binding signal (log2 normalized fluorescence)
TGACAAGCGGTA | 0.238
TGAACGCTAGTA | 0.178
TGATAAGGTGTA | 0.0319
TGACGGTGCGTA | 0.0818
TGACACATCGTA | 0.252
TGATCACTAGTA | 0.124
TGACACGTGTGG | 0.792
TGACACGTGCGA | 0.786
CGACACGTTGTT | 0.661
TGAACAAGGGTA | 0.093
AGAAACGCGGTA | 0.575
TGACTTCAAGTA | -0.0414
TGATTTACGGTA | -0.0682
TGAAGATAAGTA | 0.0111
TGATTACATGTA | 0.234
TGACTGTGTGTA | 0.107
TGAAAGTTGGTA | -0.0779
TGACAAGGTGTA | 0.404
CGACCTTAAGGC | 0.161
TGAAGTACACTT | 0.308
TGAGTAACTGTA | -0.0948
TGAGTCAAGGTA | -0.0529
TGATAACTGGTA | -0.0186
TGACACGTGCTT | 0.771
TGACCGGGCGTA | 0.223

Sequence | binding signal (log2 normalized fluorescence)
TGAACCGTCGTA | 0.0573
TGAAGGTCCGTA | 0.107
TGAGATTTCGTA | -0.126
TGAGGTTGTGTA | -0.0504
TGACTACCCGTA | 0.212
TGAGAAGCAGTA | -0.0873
GGACACGGGGTT | 0.494
TGACGAGACGTA | 0.0535
TGAGACGGCGTA | 0.02
TGATTGAGCGTA | -0.14
TGACTGGAGGTA | 0.07
TGACGCTGAGTA | 0.207
TGAGCCTAGGTA | -0.239
TGAACCATGGTA | 0.153
TGATAGACCGTA | 0.0117
TGAACAAGCGTA | 0.0159
TGATTTAAAGTA | -0.115
TGACCTGGCGTA | 0.157
TGACCGTTAGTA | 0.0484
TGAACCTCCGTA | 0.191
TGAGATCTAGTA | -0.0579
TGAAGAAGAGTA | -0.139
TGACGGAGGGTA | 0.0182
TGATCCGCCGTA | -0.142
TGATGACTGGTA | 0.0318
